# Assay results: the supplement of paper PMC11417369
# ± gives the standard deviation of the averaged measurements. The list shows a part of the results.
# System: PfAP2-G AP2 domain (GST-tagged)
# Assay: gcPBM binding intensity (ln(normalized median fluorescence intensity)); higher = stronger DNA binding
# In short: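 An Agilent 4 × 180k array of primer-extended double-stranded 36-bp intergenic genomic probes, with negative controls, was incubated for 1 h with GST-tagged P. falciparum DNA-binding domains expressed in E. coli. Alexa488 anti-GST antibody detected bound protein, scanned at 488 nm. Binding intensity is the highest Masliner-normalised natural-log median intensity across replicate spots of either probe orientation.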
row,Sequence,gcPBM binding intensity (ln)
1,TCATATTGGCTGTTCTGTACTTATAAGTTTTAAAGA [XGTACX_site5593],11.4 ± 0.85
2,TTTGTTAATATAAAAACACACAAAAATAACATAAAA [CACACA_site2619],10.2 ± 0.22
3,TATATTAAAAAAGAGGTGCATTCGTAAGAGGTTAAA [GTGCAC_site9720],10.05 ± 0.064
4,GTACAAAAAAAAATAAAATACATATATATATATATA [GTGCAC_negctrl_site364],10.6 ± 0.57
5,CACTTTTCTGGAAAAATTCCCACATTTTTTTATTAA [GTGCAC_negctrl_site322],10.3 ± 0.27
6,AAAAAAAAAAAAAACACACACACACGCATAAATATA [CACACA_site6217],10.2 ± 0.2
7,AAAAAATTCATATATACACACACGCACATATATATA [CACACA_site4226],10 ± 0.13
8,AAAATATTTCATATATGTACTTAAAAAAAAAAAAAA [XGTACX_site5399],11.2 ± 1
9,TATTATATATATGTTGACATATTTGTACACTCCACT [TGCATGCA_negctrl_site200],11.1 ± 0.84
10,GAATATATAAGATACACACACAAATTAAATATAAAA [CACACA_site2781],10.095 ± 0.007
11,CATATAATATAATTATGTACATATATAATAATATAC [XGTACX_site5278],11.2 ± 0.69
12,AAAAAAAAAAAAAAACGTACACATATTATGTTATTT [XGTACX_site5264],11.5 ± 1
13,GATAAAGTACTTTATACACACAAATATTTATTTATA [CACACA_site7795],11.1 ± 0.7
14,TCTTCATATAAGAACACATGCAGATTTTTATTATTG [TGCATGCA_site682],10.2 ± 0.17
15,TTATGTAAAAAAAAAAAAAAAAAAAAAAAAAAAAAA [CACACA_negctrl_site984],9.65 ± 0.37
16,AAAAAAAAGTTGTATTGTACAAAAAAAAAAAAAAAA [XGTACX_site8334],10.8 ± 0.83
17,TCATAAAAACTAATACGTACTTAAAAATATGAACTT [XGTACX_site2939],11.3 ± 0.71
18,TTTATATAACAACAAAATGGAAATATATATGTATGT [TGCATGCA_negctrl_site98],9.96 ± 0.11
19,TATTTACAAAAAAAATATAAAAAATATAAAATATAT [CACACA_negctrl_site575],9.36 ± 0.32

row,Sequence,gcPBM binding intensity (ln)
1,TGTATAATATTTGGTGCACACAAATTAACAACTGTT [CACACA_site9245],10.7 ± 0.6
2,AATATTAAAATAAAAAGTACTTATTTATGTATGTTG [XGTACX_site2682],11.2 ± 0.64
3,AAAAAAAAAAAAGAACGTACAAATTAATTTATAGAA [XGTACX_site5584],11.2 ± 0.83
4,TGTTTATTACTCAGGTGTACTCAATTTTTTTTTTTT [XGTACX_site3470],11.5 ± 0.86
5,CAGACATATTAAAAGAGTACATATATATATATATAT [XGTACX_site1158],11.4 ± 0.93
6,TAATATTGACTATATACACACATATATATATATATA [CACACA_site575],10.1 ± 0.35
7,TACACAAATATATACATACACACATATATACGCATA [CACACA_site394],10.1 ± 0.13
8,AAATGAATAAATAGGTCACACACAAATATATATAAA [CACACA_site8764],10.4 ± 0.36
9,ATATATATATATATATGTACATATACATATGTGCAA [XGTACX_site5604],11.2 ± 0.45
10,AATAAATAAAGAAGTACACACATATATATATATATA [CACACA_site4314],11.7 ± 1.1
11,TATTTTTAAAATATAAGTAAAAAAATAATATAAACT [TGCATGCA_negctrl_site283],10.1 ± 0.11
12,AGTACATTTTTGTGTGTGCACTAATATTATATACTT [GTGCAC_site9568],10.8 ± 0.56
13,TAATTTCTTAGGTATTGTACAAATATTATATGATAT [XGTACX_site256],10.9 ± 0.42
14,ATATATCTATAAAAGGCTTCCCACTTTTTTTGTCAA [TGCATGCA_negctrl_site332],9.78 ± 0.16
15,ATAATAAAAAAAATTAGTACATATATAAATATAAAT [XGTACX_site1937],11.1 ± 0.73
16,ATTCTACCACGCGATATACACACTTGTAGACATCTT [CACACA_site188],10.3 ± 0.2
17,TATAATGTATGTAGTGCACACCTCTATAATATATTA [CACACA_site8560],10.6 ± 0.3
18,AAATTTATGTGTGCCTGTACATATCAAAGATTTAAG [XGTACX_site8547],10.9 ± 0.54
19,CGCAATTAAAATATGTGTCCTCATTTTATAACATTT [XGTACX_site5340],11.2 ± 0.65

row,Sequence,gcPBM binding intensity (ln)
1,ATTTATTTTATTTTCACACACAAAAATAAATATCCG [CACACA_site2414],10.07 ± 0.099
2,ATAAAAAAAAAAAAAAGTACACATATAAAAGTATTG [XGTACX_site8265],11.6 ± 0.91
3,TAAATAATATCTATCACACACGCATAAATACAGATA [CACACA_site5449],9.995 ± 0.035
4,CTAAATTGTTAATAGAGTACATTTGTATAATATAAG [XGTACX_site594],11.1 ± 0.73
5,GTGTACAAAATATGGTAATAAAGTAGTTACATGAAT [CACACA_negctrl_site1775],11 ± 0.58
6,TATGTGAAATAAGGATGTACAATTTTGATTTCCCCA [XGTACX_site8389],11.1 ± 0.44
7,AATAAAATATAATAATTAATATATATATATATATAA [GTGCAC_negctrl_site457],9.47 ± 0.11
8,TTATGTTGTAAATACACACATACATATACATACACA [CACACA_site733],10.3 ± 0.15
9,TACGTTGTATATTTTTGTACATATTGAATTACAAAA [XGTACX_site5906],10.8 ± 0.54
10,TTTAATGAAAGAAACACATACGTATCAAAATATATG [TGCATGCA_negctrl_site510],10.5 ± 0.17
11,TTTTAATAATTTATAAAAAAAAAAAAAAAATAAATA [TGCATGCA_negctrl_site419],9.52 ± 0.15
12,GGATAAAAAATATGTACACACATATAGATATCTATA [CACACA_site2693],11.4 ± 0.79
13,GTTTACATCATTCTGGTGCAAAAAAAAAAAAAAATA,10.1 ± 0.41
14,TAGATTTAAAAAAAAAAAAAATTTTTTTTTTTTTTT [TGCATGCA_negctrl_site593],9.9 ± 0.18
15,GAATACTCATTTCTTTGTACATATATATGTGTATTT [XGTACX_site6411],11.1 ± 0.58
16,ATACAAGTATTAATTACACACTCAAAAAGAAAAAAC [CACACA_site5287],10.2 ± 0.26
17,GAACAATATATTTGCACACAAAAAATATATATTTAT [CACACA_site3317],10.2 ± 0.24
18,TTCATATGGAATAAAAGTACGTATTAAAACAATTTT [XGTACX_site8742],11.1 ± 0.59
